# The supplement of paper PMC8728848
# Some of the results follow.
# B1: PX9961X-pdi-531-24-531 (Parabacteroides distasonis) (protein)
# chain: DLTEEIHSSVIAENYYNNAGEVMAAMMRPWGHFCGTMQVAQSPWSCNELSSDCAAWPQKGRHGYDNGDWIRLHRHQWIPTDGQVVDAWKKLFEGIGYANNFLTDTENIDFEALQVPMSKAQAQAEMRVYRAYCYWYVMDMFGTAPICEKIGEINPSSKSRAELFAWIEKELNESIPSLSESKTETYGRVSKWGAYALLARLYLNAEIYTGQARWDDCIAACDELAKGGFALDKKWNDTFRADNDKRSTEIIWSIVYDEVYAKGMGWYQRWLHYAHQTGWDLQSGPWNGLVTQPTFYDSFADNDLRKIEGFLIGKQYPRKVDENGNYYYDTTAEPLKGSEEYNGQDLVFVNYIKSMTEGEENSGARSIKYEIQPGTTGDMNNDWVMFRYSEVIYNKAEALMRKNGGKATQEVVDMINSVRQRSFKAEDWEKAKYTTATLTMDEFLAEKGREFAFEGIRRTDLVRFNKFVTTSWWDKTASNEPKRNIFPIPQRQLDANANLSPNEANSLF
# Assays:
# Test in all cases: glycan array binding signal (z-score within array); higher = stronger binding
# Conditions in all cases: glycan notation: IUPAC condensed, linker removed
# [1] = biological target: Gal(b1-4)GlcNAc(b1-3)Gal(b1-4)GlcNAc(b1-3)Gal(b1-4)GlcNAc(b1-2)Man(a1-3)[Gal(b1-4)GlcNAc(b1-3)Gal(b1-4)GlcNAc(b1-3)Gal(b1-4)GlcNAc(b1-2)Man(a1-6)]Man(b1-4)GlcNAc(b1-4)GlcNAc
# How it was run: (§1)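 The binding signal is a Z-score computed within each array. Data were drawn from 3228 arrays in the Consortium for Functional Glycomics database, restricted to those with a known protein sequence. Scores were averaged over arrays of the same protein sequence at different concentrations or buffers, and over linkers, and negative values can be taken as non-binding.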
# [2] = biological target: Gal(b1-4)GlcNAc(b1-3)Gal(b1-4)GlcNAc(b1-3)Gal(b1-4)GlcNAc(b1-2)Man(a1-3)[Gal(b1-4)GlcNAc(b1-3)Gal(b1-4)GlcNAc(b1-3)Gal(b1-4)GlcNAc(b1-2)Man(a1-6)]Man(b1-4)GlcNAc(b1-4)[Fuc(a1-6)]GlcNAc
# How it was run: as §1
# [3] = biological target: Gal(b1-4)GlcNAc(b1-3)Gal(b1-4)GlcNAc(b1-3)Gal(b1-4)GlcNAc(b1-2)[Gal(b1-4)GlcNAc(b1-3)Gal(b1-4)GlcNAc(b1-3)Gal(b1-4)GlcNAc(b1-6)]Man(a1-6)[Gal(b1-4)GlcNAc(b1-3)Gal(b1-4)GlcNAc(b1-3)Gal(b1-4)GlcNAc(b1-2)Man(a1-3)]Man(b1-4)GlcNAc(b1-4)[Fuc(a1-6)]GlcNAc
# How it was run: as §1
# [4] = biological target: Gal(b1-4)GlcNAc(b1-3)Gal(b1-4)GlcNAc(b1-3)Gal(b1-4)GlcNAc(b1-3)Gal(b1-4)GlcNAc(b1-2)Man(a1-3)[Gal(b1-4)GlcNAc(b1-3)Gal(b1-4)GlcNAc(b1-3)Gal(b1-4)GlcNAc(b1-3)Gal(b1-4)GlcNAc(b1-2)Man(a1-6)]Man(b1-4)GlcNAc(b1-4)GlcNAc
# How it was run: as §1
# [5] = biological target: Gal(b1-4)GlcNAc(b1-3)Gal(b1-4)GlcNAc(b1-3)Gal(b1-4)GlcNAc(b1-3)Gal(b1-4)GlcNAc(b1-2)Man(a1-3)[Gal(b1-4)GlcNAc(b1-3)Gal(b1-4)GlcNAc(b1-3)Gal(b1-4)GlcNAc(b1-3)Gal(b1-4)GlcNAc(b1-2)Man(a1-6)]Man(b1-4)GlcNAc(b1-4)[Fuc(a1-6)]GlcNAc
# How it was run: as §1
# [6] = biological target: Gal(b1-4)GlcNAc(b1-3)Gal(b1-4)GlcNAc(b1-3)Gal(b1-4)GlcNAc(b1-3)Gal(b1-4)GlcNAc(b1-2)[Gal(b1-4)GlcNAc(b1-3)Gal(b1-4)GlcNAc(b1-3)Gal(b1-4)GlcNAc(b1-3)Gal(b1-4)GlcNAc(b1-6)]Man(a1-6)[Gal(b1-4)GlcNAc(b1-3)Gal(b1-4)GlcNAc(b1-3)Gal(b1-4)GlcNAc(b1-3)Gal(b1-4)GlcNAc(b1-2)Man(a1-3)]Man(b1-4)GlcNAc(b1-4)[Fuc(a1-6)]GlcNAc
# How it was run: as §1
# [7] = biological target: Gal(b1-4)GlcNAc(b1-3)Gal(b1-4)GlcNAc(b1-3)Gal(b1-4)GlcNAc(b1-3)Gal(b1-4)GlcNAc(b1-3)Gal(b1-4)GlcNAc(b1-2)Man(a1-3)[Gal(b1-4)GlcNAc(b1-3)Gal(b1-4)GlcNAc(b1-3)Gal(b1-4)GlcNAc(b1-3)Gal(b1-4)GlcNAc(b1-3)Gal(b1-4)GlcNAc(b1-2)Man(a1-6)]Man(b1-4)GlcNAc(b1-4)GlcNAc
# How it was run: as §1
# [8] = biological target: Gal(b1-4)GlcNAc(b1-3)Gal(b1-4)GlcNAc(b1-3)Gal(b1-4)GlcNAc(b1-3)Gal(b1-4)GlcNAc(b1-3)Gal(b1-4)GlcNAc(b1-2)Man(a1-3)[Gal(b1-4)GlcNAc(b1-3)Gal(b1-4)GlcNAc(b1-3)Gal(b1-4)GlcNAc(b1-3)Gal(b1-4)GlcNAc(b1-3)Gal(b1-4)GlcNAc(b1-2)Man(a1-6)]Man(b1-4)GlcNAc(b1-4)[Fuc(a1-6)]GlcNAc
# How it was run: as §1
# [9] = biological target: Gal(b1-4)GlcNAc(b1-3)Gal(b1-4)GlcNAc(b1-3)Gal(b1-4)GlcNAc(b1-3)Gal(b1-4)GlcNAc(b1-3)Gal(b1-4)GlcNAc(b1-2)[Gal(b1-4)GlcNAc(b1-3)Gal(b1-4)GlcNAc(b1-3)Gal(b1-4)GlcNAc(b1-3)Gal(b1-4)GlcNAc(b1-3)Gal(b1-4)GlcNAc(b1-6)]Man(a1-6)[Gal(b1-4)GlcNAc(b1-3)Gal(b1-4)GlcNAc(b1-3)Gal(b1-4)GlcNAc(b1-3)Gal(b1-4)GlcNAc(b1-3)Gal(b1-4)GlcNAc(b1-2)Man(a1-3)]Man(b1-4)GlcNAc(b1-4)[Fuc(a1-6)]GlcNAc
# How it was run: as §1
# [10] = biological target: Gal(b1-4)GlcNAc(b1-3)Gal(b1-4)GlcNAc(b1-3)Gal(b1-4)GlcNAc(b1-3)Gal(b1-4)GlcNAc(b1-3)Gal(b1-4)GlcNAc(b1-3)Gal(b1-4)GlcNAc(b1-2)Man(a1-3)[Gal(b1-4)GlcNAc(b1-3)Gal(b1-4)GlcNAc(b1-3)Gal(b1-4)GlcNAc(b1-3)Gal(b1-4)GlcNAc(b1-3)Gal(b1-4)GlcNAc(b1-3)Gal(b1-4)GlcNAc(b1-2)Man(a1-6)]Man(b1-4)GlcNAc(b1-4)GlcNAc
# How it was run: as §1
# [11] = biological target: Gal(b1-4)GlcNAc(b1-3)Gal(b1-4)GlcNAc(b1-3)GalNAc
# How it was run: as §1
# [12] = biological target: Gal(b1-4)GlcNAc(b1-3)Gal(b1-4)GlcNAc(b1-3)[Gal(b1-4)GlcNAc(b1-3)Gal(b1-4)GlcNAc(b1-6)]GalNAc
# How it was run: as §1
# [13] = biological target: Gal(b1-4)GlcNAc(b1-3)Gal(b1-4)GlcNAc(b1-6)[Gal(b1-3)]GalNAc
# How it was run: as §1
# [14] = biological target: Gal(b1-4)GlcNAc(b1-3)Gal(b1-4)[Fuc(a1-3)]GlcNAc(b1-3)Gal(b1-4)[Fuc(a1-3)]GlcNAc
# How it was run: as §1
# [15] = biological target: Gal(b1-4)GlcNAc(b1-3)GalNAc
# How it was run: as §1
# [16] = biological target: Gal(b1-4)GlcNAc(b1-3)[Fuc(a1-3)GlcNAc(b1-6)]Gal(b1-4)Glc
# How it was run: as §1
# [17] = biological target: Gal(b1-4)GlcNAc(b1-3)[Gal(b1-4)GlcNAc(b1-6)]Gal(b1-4)GlcNAc
# How it was run: as §1
# [18] = biological target: Gal(b1-4)GlcNAc(b1-3)[GlcNAc(b1-6)]Gal(b1-4)GlcNAc
# How it was run: as §1
# [19] = biological target: Gal(b1-4)GlcNAc(b1-6)Gal(b1-4)GlcNAc
# How it was run: as §1
binder,measurement,setting,value
B1,glycan array binding signal (z-score),[1],0.855
same,glycan array binding signal (z-score),[2],0.433
same,glycan array binding signal (z-score),[3],1.3
same,glycan array binding signal (z-score),[4],0.298
same,glycan array binding signal (z-score),[5],0.526
same,glycan array binding signal (z-score),[6],3.6
same,glycan array binding signal (z-score),[7],0.491
same,glycan array binding signal (z-score),[8],0.433
same,glycan array binding signal (z-score),[9],3.41
same,glycan array binding signal (z-score),[10],0.947
same,glycan array binding signal (z-score),[11],0.788
same,glycan array binding signal (z-score),[12],0.654
same,glycan array binding signal (z-score),[13],-0.746
same,glycan array binding signal (z-score),[14],-0.285
same,glycan array binding signal (z-score),[15],-0.769
same,glycan array binding signal (z-score),[16],-0.157
same,glycan array binding signal (z-score),[17],-0.863
same,glycan array binding signal (z-score),[18],-0.687
same,glycan array binding signal (z-score),[19],-0.303
